The whole screen tested about 310,000 compounds, of which about 14,000 (4.5%) showed an effect of 50% or more. Effects have a minus sign here. This is one part of the list.
Each compound was assayed against human ether-à-go-go-related gene (hERG) potassium channel (human, UniProt Q12809) (assay: primary screen, population patch clamp on CHO cells stably expressing hERG).
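Further: peak tail current of the secondary pulse compared with the same well before compound.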

human ether-à-go-go-related gene (hERG) potassium channel, sequence (Q12809 whole entry, looked up): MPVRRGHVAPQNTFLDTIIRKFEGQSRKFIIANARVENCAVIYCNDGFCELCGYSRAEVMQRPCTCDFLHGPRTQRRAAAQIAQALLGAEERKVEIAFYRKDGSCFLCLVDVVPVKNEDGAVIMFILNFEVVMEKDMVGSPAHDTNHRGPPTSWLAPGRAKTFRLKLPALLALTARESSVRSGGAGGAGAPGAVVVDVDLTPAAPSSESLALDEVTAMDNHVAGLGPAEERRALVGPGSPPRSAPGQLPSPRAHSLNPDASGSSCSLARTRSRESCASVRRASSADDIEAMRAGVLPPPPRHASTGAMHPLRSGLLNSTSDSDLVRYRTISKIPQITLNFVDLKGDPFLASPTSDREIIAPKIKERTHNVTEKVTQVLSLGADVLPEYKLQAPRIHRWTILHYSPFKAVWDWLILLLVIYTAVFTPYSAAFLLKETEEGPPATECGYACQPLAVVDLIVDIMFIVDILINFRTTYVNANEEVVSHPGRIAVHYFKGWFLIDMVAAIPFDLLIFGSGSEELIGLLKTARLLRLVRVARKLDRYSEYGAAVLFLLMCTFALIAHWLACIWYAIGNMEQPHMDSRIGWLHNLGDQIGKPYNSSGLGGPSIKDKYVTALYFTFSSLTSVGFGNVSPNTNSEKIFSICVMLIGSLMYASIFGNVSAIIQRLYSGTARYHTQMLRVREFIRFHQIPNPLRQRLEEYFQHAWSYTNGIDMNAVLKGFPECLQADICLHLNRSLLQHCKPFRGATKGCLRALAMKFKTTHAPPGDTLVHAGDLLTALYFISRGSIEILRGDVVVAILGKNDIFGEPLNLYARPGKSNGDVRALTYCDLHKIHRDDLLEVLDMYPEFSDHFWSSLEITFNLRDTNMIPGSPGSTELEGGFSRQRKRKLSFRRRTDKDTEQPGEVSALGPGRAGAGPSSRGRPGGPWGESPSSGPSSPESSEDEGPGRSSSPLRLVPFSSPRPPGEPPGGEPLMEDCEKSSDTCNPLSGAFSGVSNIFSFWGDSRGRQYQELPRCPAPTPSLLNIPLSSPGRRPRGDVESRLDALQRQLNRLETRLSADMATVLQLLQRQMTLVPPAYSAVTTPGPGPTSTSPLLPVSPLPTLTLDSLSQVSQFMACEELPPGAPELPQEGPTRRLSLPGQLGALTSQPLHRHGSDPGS

| Compound | hERG current change (%, negative = inhibition) at 10uM |
| --- | --- |
| CCn1nnc(NC(=S)NC(=O)c2ccc(-c3cccc(Cl)c3)o2)n1 | -9.45% |
| CCOC(=O)C1CCN(C(=O)c2cc(S(=O)(=O)N3CCCCCC3)ccc2OC)CC1 | -50.8% |
| CCCN(C(=O)Cc1coc2cc(C)c(C)cc12)c1c(N)n(Cc2ccccc2)c(=O)[nH]c1=O | -20.2% |
| O=C(c1ccc2ncsc2c1)N1CCCC(C(F)(F)F)C1 (stereo not shown) | 4.69% |
| COc1ccc(C2CC3(CC(C)(C)NC(SC)=N3)Oc3cc(O)cc(C)c32)cc1.I (stereo not shown) | -74.3% |
| CCCOc1ccc(/C=C/C(=O)OCC(=O)N(C)c2c(N)n(Cc3ccccc3)c(=O)[nH]c2=O)cc1OCC | 34.2% |
| CN[C@H](C)[C@H](O)c1ccccc1 | 14.9% |
| COc1ccccc1OCC(=O)Nc1ccc(S(=O)(=O)Nc2nc(C)cc(C)n2)cc1 | 6.71% |
| N#C/C(=C\c1ccccn1)c1nc2ccccc2s1 | 15.5% |
| Cc1c(C(=O)NCCSCc2c(F)cccc2Cl)cnn1-c1ccc(Cl)cc1 | -22% |
| Cc1cccc(NC(=O)c2cc([N+](=O)[O-])ccc2N2CCN(C)CC2)c1 | -61.9% |
| O=C1N/C(=C/c2cccn2-c2ccc(F)cc2)C(=O)N1Cc1ccccc1F | 13.8% |
| Cc1ccc(-n2nc3c(=O)n(CC(=O)NC(C)CCc4ccccc4)nc(C)c3c2C)cc1 (stereo not shown) | 6.77% |
| COc1ccc(CN2CCNC(=O)C2CC(=O)NCC2CCOCC2)c(F)c1 (stereo not shown) | 17.3% |
| Cc1ccc(NC2=C([N+](=O)[O-])CS(=O)(=O)C2)cc1 | 2.58% |
| COc1ccc(-n2nnc3c(=O)n(CC(=O)Nc4ccc5c(c4)OCCO5)cnc32)cc1OC | 0.0199% |
| O=C1OC(CCl)CN1Cc1ccc([N+](=O)[O-])cc1 (stereo not shown) | -27.9% |
| COc1ccc(S(=O)(=O)N2CCC(C(=O)OCC(=O)c3ccccc3)CC2)cc1[N+](=O)[O-] | -2.2% |
| COc1cccc(-c2nc(CS(=O)CC(=O)NCc3ccccc3Cl)c(C)o2)c1 (stereo not shown) | -22.6% |
| CC(NC(=O)CNC(=O)C1O[C@@H]2OC(C)(C)O[C@@H]2[C@H]2OC(C)(C)O[C@@H]12)C(=O)O (stereo partly shown) | 23% |
| O=C(NC(=S)Nc1ccc(S(=O)(=O)Nc2nccs2)cc1)c1ccc(F)cc1 | 23% |
| CCOC(=O)N1CCN(c2nc3ccc(C(=O)c4ccccc4)cc3n3cnnc23)CC1 | -43.9% |
| CCn1c(SCC(=O)NNC(=O)c2ccc(OC)cc2)nnc1C(C)C | 11% |
| CCOC(=O)c1ccc(NC(=S)N(CCCN2CCN(CC)CC2)Cc2ccco2)cc1 | -76.5% |
| Cc1cccc(C(=O)NC(Oc2ccccc2)C(Cl)(Cl)Cl)c1 (stereo not shown) | 17.7% |
| Cc1sc2ncnc(SCC(=O)Nc3nc(-c4ccc(F)c(F)c4)cs3)c2c1C | 22.9% |

| Compound | hERG current change (%, negative = inhibition) at 10uM |
| --- | --- |
| O=C(Nc1ccnc(-c2ccncc2)n1)c1ccc(Cl)cc1 | 19.7% |
| CCCC(=O)C1CCN(Cc2ccccc2)CC1 | 5.21% |
| O=C(O)C12CC3CC(C1)CC(n1ncc(NCc4ccco4)c(Cl)c1=O)(C3)C2 | 4.41% |
| CC(C)=NNc1nc2c(c(=O)[nH]c(=O)n2C)n1CCCc1ccccc1 | 13.6% |
| Cc1ccc(CNC(=O)c2ccc(N3CCC4(CC3)CC(c3ccccc3)=NO4)c(NC(=O)c3ccccc3)c2)cc1 | 7.61% |
| CCC1(CC)C(=O)N(C)C(=O)NC1=Nc1ccc(OC)cc1 | 8.99% |
| COC(=O)CNC(=O)C1CCC(CNS(=O)(=O)c2cccc3nsnc23)CC1 (stereo not shown) | 8.55% |
| N#Cc1c(N)nc2c(c1-c1ccco1)CCCCC2 | 10.4% |
| O=C(Nc1ccc(S(=O)(=O)Nc2nccs2)cc1)c1nn(-c2ccccc2)ccc1=O | 11% |
| CCN1C[C@@]2(COC)C3[C@@H](OC)[C@H]4[C@@H]1[C@@]3(C1C[C@H]3[C@H](OC(C)=O)C1[C@]4(OC(C)=O)C[C@H]3OC)[C@@H](OC)C[C@H]2OC(C)=O (stereo partly shown) | -1.43% |
| CN(c1ccc(C(=O)N/N=C/c2cccc([N+](=O)[O-])c2)cc1)S(=O)(=O)c1ccccc1 | 1.88% |
| C=CCN1C=C2C(=O)C(C)(OC(=O)c3ccc(OC)cc3)C(=O)C(c3ccco3)=C2C=C1CCCC (stereo not shown) | 11.9% |
| COS(=O)(=O)[O-].Cn1nnc(CC[N+](C)(C)C)n1 | 14.7% |
| Cc1cc2nc(-c3cccnc3SCC(=O)NC(C)C)[nH]c2cc1C | 25.4% |
| COc1cccc(C(=O)O/N=C/c2ccc(Sc3ccc(C)cc3)nc2)c1 | 24.9% |
| Cc1ccc(C23CC4CC(CC(C(=O)NC(C)C(=O)O)(C4)C2)C3)cc1 (stereo not shown) | 26.7% |
| N#Cc1cc(-c2ccccc2)nnc1Sc1ccccc1 | 26.3% |
| OC12CCCCC1C(c1ccc3c(c1)OCO3)N(Cc1ccccc1F)CC2 (stereo not shown) | -10.9% |
| COC(=O)C1C(=O)c2c([nH]c(C(=O)OC3CCCCCC3)c2C)CC1C (stereo not shown) | 8.03% |
| O=C1c2ccccc2NC(c2cn[nH]c2-c2ccccc2)N1O (stereo not shown) | -6.97% |
| Nc1ccccc1/C=N\N=C/c1ccccc1N | -0.527% |
| CCNc1ccc(C(=O)Nc2ccc3nc(C)sc3c2)cc1[N+](=O)[O-] | 2.48% |
| Cc1ccc(-n2c(SCC(=O)N3CCC(C(=O)O)CC3)nc3ccccc3c2=O)cc1C | 25.1% |
| c1coc(CSc2ncnc3c2oc2ccccc23)c1 | 13.9% |
| Clc1ccc(-c2cc(CSc3ccccc3)on2)cc1 | 6.26% |
| O=C(O)c1cc([N+](=O)[O-])cc2c1C=Cc1ccccc1O2 | 15.4% |

Reference: paper PMC4336329 (PLoS ONE, 2015)
